Screen size: about 50,000 compounds; about 800 (1.6%) showed an effect of 50% or more. The list shows a part of the results.
What follows are compounds tested against Bcl-2-like protein 10 (Homo sapiens) (UniProt Q9HD36) (assay: Phenotype converters, Bcl-B/TR3 peptide binding displacement, primary biochemical FP (AID 1240;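 also: 0% = Bcl-B with tracer peptide and DMSO and 100% = tracer peptide lacking Bcl-B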)). Conditions: GST-Bcl-B / FITC-TR3 peptide fluorescence polarization; stronger effect = higher value; compound at 3.75 mg/L.
UniProt Q9HD36, sequence (Q9HD36 whole entry, looked up): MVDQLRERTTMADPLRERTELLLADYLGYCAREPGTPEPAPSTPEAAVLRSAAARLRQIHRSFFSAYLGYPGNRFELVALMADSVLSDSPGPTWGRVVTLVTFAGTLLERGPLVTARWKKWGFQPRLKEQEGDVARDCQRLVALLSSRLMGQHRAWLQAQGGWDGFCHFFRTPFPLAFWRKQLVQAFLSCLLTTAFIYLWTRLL

Compared with `CCOC(=O)c1sc(NC(=O)/C=C/c2cccc([N+](=O)[O-])c2)c(C(=O)OCC)c1C`, `CCOC(=O)C(=Cc1ccc(OCc2ccc([N+](=O)[O-])cc2)c(OC)c1)C(=O)OCC` is lower in displacement: 7.2% for the first, 3.9% for the second.

First: COc1ccc(C(=O)N2c3ccccc3C(N(C(=O)c3cccs3)c3ccccc3)CC2C)cc1 (centres undefined)
Second: Cc1cc(Cl)ccc1NC(=O)c1ccc(CN(c2ccccc2)S(C)(=O)=O)cc1
The displacement of the first is higher: 16.7% for the first, -4.5% for the second.

Going from `Cc1onc(-c2c(Cl)cccc2Cl)c1C(=O)NCc1ccncc1` to `Cc1cccc(Nc2nnc(-c3ccc(C(=O)NCCO)cc3)c3ccccc23)c1`, the displacement falls from 15% to 3.5%.

First: C=CCSC1=C(C#N)C(c2ccco2)C(C(=O)Nc2ccccc2OC)=C(C)N1 (centres undefined)
Second: COc1ccccc1NC(=O)c1ccc(Br)o1
The displacement of the first is lower: -21.8% for the first, 1% for the second.

Compared with `Cc1ccc(N2C(=O)CC(NCc3cccc(C(F)(F)F)c3)C2=O)cc1` (centres undefined), `CS(=O)(=O)N(Cc1ccccc1)c1ccccc1C(=O)Nc1cccc(C(F)(F)F)c1` is lower in displacement: 0.1% for the first, -2.9% for the second.

Going from `C(=C\c1ccccc1)/C1=Nc2ccccc2NC(c2ccccc2)C1` (centres undefined) to `O=C1ON=C(c2ccccc2)/C1=C\c1ccc(OCc2ccccc2)cc1`, the displacement rises from 0.8% to 7.7%.

Going from `Cc1ccc(NC(=O)c2ccccc2N(Cc2ccccc2)S(C)(=O)=O)cc1Cl` to `COc1cccc(NC(=O)CN(c2ccc(F)cc2)S(=O)(=O)c2ccccc2)c1`, the displacement rises from 3.3% to 4.5%.

Compared with `N#Cc1cccc(N=Cc2ccc(OCc3ccccc3)cc2)c1`, `Cc1nc2ccccn2c1C(=O)N/N=C\c1ccc(OCc2ccc(Cl)cc2)cc1` is higher in displacement: -7.8% for the first, 8.8% for the second.

First: CCOC(=O)COc1ccc2oc(C)c(C(=O)OC)c2c1
Second: COc1c(O)ccc(/C=N/NC(=O)COc2cccc(C)c2)c1[N+](=O)[O-]
The displacement of the first is higher: 8.5% for the first, -1.1% for the second.

Going from `CCOC(=O)c1ccc(N2C(=O)C3C(c4ccc(Cl)cc4)OC4(C(=O)c5ccccc5C4=O)C3C2=O)cc1` (centres undefined) to `CCOC(=O)c1ccc(NC(=O)CN(c2ccc(F)cc2)S(=O)(=O)c2ccccc2)cc1`, the displacement rises from -9.8% to -7.4%.

First: CN(C)Cc1c(O)ccc2cc(-c3nc4ccccc4s3)c(=O)oc12
Second: COc1cc(OC)cc(C(=O)Nc2cccc(-c3nc4ccccc4s3)c2)c1
The displacement of the first is higher: 110% for the first, 23.1% for the second.

Compared with `Nc1ccc(S(=O)(=O)Nc2nccc(/C=C/c3cccc(Cl)c3)n2)cc1`, `COc1ccccc1NS(=O)(=O)c1ccc(Br)cc1` is higher in displacement: -22.7% for the first, 0.6% for the second.

First: Cc1cc(N2CCN(c3ccccc3)CC2)nc(-c2ccc(Br)cc2)n1
Second: CC(C)Oc1nc(-c2ccc(Br)cc2)nc2ccccc12
The displacement of the first is lower: 9.6% for the first, 13.9% for the second.

First: COc1cccc(/C=C2\SC(=S)N(CCC(=O)O)C2=O)c1
Second: COc1ccc(-c2nnc(SCC(=O)O)n2N)cc1
The displacement of the first is higher: 12.7% for the first, -1.4% for the second.

Going from `Cc1ccc(Cl)cc1NC(=O)C1CCCC1` to `COc1ccc(Cl)cc1C(=O)NCCN1CCOCC1`, the displacement falls from 0.4% to -0.2%.

First: O=[N+]([O-])c1ccc(S(=O)(=O)NC2c3ccccc3Oc3ccccc32)cc1
Second: CNc1oc(-c2ccccc2)nc1S(=O)(=O)c1ccccc1
The displacement of the first is higher: -0.6% for the first, -7.9% for the second.

Going from `COC(=O)c1c(NC(=O)CN2C(=O)c3ccccc3C2=O)sc2c1C(C(=O)OC)CC2` (centres undefined) to `COC(=O)C1=CN(CCc2ccccc2)C=C(C(=O)OC)C1c1ccc(Cl)cc1`, the displacement rises from -0.7% to 8.8%.

Going from `Cn1c(CNc2ccc(O)cc2)nc2ccccc21` to `Cn1cnc2cc(NCc3ccc(Cl)cc3)ccc21`, the displacement falls from 76.7% to 5.2%.

Going from `S=C1NC(c2ccccc2)=NCN1c1ccccc1` to `C(=N\c1nc2ccccc2n1Cc1ccccc1)/c1cccs1`, the displacement rises from 1.8% to 4.2%.

Compared with `CCc1ccc(OCC(=O)Nc2ccc(OC(F)(F)F)cc2)cc1`, `COc1ccc(OCC(=O)NCCOc2ccccc2)cc1` is lower in displacement: 1.4% for the first, -0.8% for the second.

First: COc1cccc(C(=O)Nc2nc3ccc(S(C)(=O)=O)cc3s2)c1
Second: COc1ccc(NC(=O)CN(c2cc(OC)ccc2OC)S(C)(=O)=O)cc1
The displacement of the first is lower: -11.5% for the first, 13.1% for the second.

First: Cc1ccc(OCCOCCOc2ccc(/C=c3\sc4nc5ccccc5n4c3=O)cc2)cc1
Second: CN1CCN(c2ccc(/C=c3\sc4nc5ccccc5n4c3=O)cc2[N+](=O)[O-])CC1
The displacement of the first is higher: -1% for the first, -6.3% for the second.

Going from `COc1ccccc1NC(=O)c1ccc(C(=O)c2c(C)cc(C)cc2C)cc1` to `O=C(Nc1ccc2c(c1O)C(=O)c1ccccc1C2=O)c1ccccc1`, the displacement rises from 5.1% to 12.7%.

First: Cc1ccc(N2C(=O)C(Cl)=C(NCCc3ccccc3)C2=O)c(C)c1
Second: Cc1ccc(/C(O)=C2/C(=O)C(=O)N(CCCCCC(=O)O)C2c2ccccc2)cc1 (centres undefined)
The displacement of the first is higher: 3% for the first, -10.3% for the second.

Compared with `COc1ccc(C2CC(C(F)(F)F)n3nc(C(=O)N4CCN(Cc5ccccc5)CC4)cc3N2)cc1` (centres undefined), `CCC(Oc1ccccc1)C(=O)N1CCN(C(c2ccccc2)c2ccccc2)CC1` (centres undefined) is lower in displacement: 4.5% for the first, -9.6% for the second.

First: CC(C)CCn1c2ccccc2c2cc(CC(N)=O)ccc21
Second: CCN(CC)CCC(=O)N1c2ccccc2Sc2ccc(NC(=O)OC)cc21
The displacement of the first is lower: -5.8% for the first, 0.2% for the second.

Going from `O=C(/C=C/c1cccs1)Nc1ccc(N2CCOCC2)cc1` to `CCCOC(=O)c1ccc(NC(=O)/C=C/c2ccc3c(c2)OCO3)cc1`, the displacement falls from -1% to -8.4%.

Compared with `Cc1ccc(Nc2nc(-c3cccs3)cs2)cc1`, `CCOc1ccc(S(=O)(=O)N(CC(=O)NC)c2ccc(C)cc2)cc1` is higher in displacement: -4.9% for the first, 1.7% for the second.

First: O=C(O)c1ccc(-c2cc([N+](=O)[O-])ccc2F)o1
Second: COCCCNC(=O)c1ccc(Cl)c([N+](=O)[O-])c1
The displacement of the first is lower: -5.3% for the first, 5.3% for the second.

Going from `O=C(Cc1ccc(Cl)cc1)Nc1ccc(Nc2ccccc2)cc1` to `OC(CNCc1ccccc1)(c1ccc(Cl)cc1)c1ccc(Br)cc1` (centres undefined), the displacement falls from -3.8% to -6.7%.

Going from `Cn1c(=O)c(N)c2c3c(c(Br)ccc31)C(=O)c1ccccc1-2` to `O=C1c2ccccc2CN1c1nccs1`, the displacement falls from 159% to -8.3%.

First: COc1ccc(OC)c(N(CC(=O)Nc2ccc(Cl)cc2)S(C)(=O)=O)c1
Second: CCCCOC(=O)c1cccc(NC(=O)c2ccc(Cl)cc2)c1
The displacement of the first is higher: 10.2% for the first, -2.5% for the second.

First: Cc1ccc(C(=O)NC23CCC4CC(CC(C4)C2)C3)cc1
Second: CCOC(=O)C1=C(O)CSC1=Nc1ccc(C)cc1
The displacement of the first is higher: 9.1% for the first, -15.6% for the second.

Compared with `Cc1nnc(Sc2nc(Sc3nnc(C)s3)nc(N3CCN(C)CC3)n2)s1`, `COC(=O)C1=C(C)N(C)C(C)=C(C(=O)OC)C1c1ccc(C)s1` is lower in displacement: 9.7% for the first, 0.5% for the second.

`C#CCOc1ccc(/C=C2\C(=O)NC(=O)N(c3cc(C)cc(C)c3)C2=O)cc1OCC` showed a displacement of -36.6%.
